# Assay results as given in article PMC9911399, “Two distinct binding modes provide the RNA-binding protein RbFox with extraordinary sequence specificity”.
# Numbering of substitutions follows the chain as printed; changes in the protein carry UniProt numbers. Some of the results follow.
# T1: RBFOX1 RRM RbFoxmut (Fox-RRM*) (Homo sapiens, UniProt Q9NWB1 109-208, R118D;E147R;N151S;E152T)
# T1 sequence: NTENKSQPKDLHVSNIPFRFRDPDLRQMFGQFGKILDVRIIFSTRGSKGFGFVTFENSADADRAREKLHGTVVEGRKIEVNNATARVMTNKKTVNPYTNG
# B1: GCCCCGA (DNA:RNA)
# RNA: GGGAGACCGGAAUUCAGAUUGUCCGCCCCGAUUAAAUCCCGUCGUAGCCACCA
# DNA 1: CAATCTGAATTCCGGTCTCCC
# DNA 2: TGGTGGCTACGACGGGATT
# B2: AAUUUCU (DNA:RNA)
# RNA: GGGAGACCGGAAUUCAGAUUGUCCAAUUUCUUUAAAUCCCGUCGUAGCCACCA
# DNA 1: CAATCTGAATTCCGGTCTCCC
# DNA 2: TGGTGGCTACGACGGGATT
# B3: UAUUGAU (DNA:RNA)
# RNA: B2 RNA with A25U, U29G, C30A
# DNA 1: CAATCTGAATTCCGGTCTCCC
# DNA 2: TGGTGGCTACGACGGGATT
# B4: CUAGUAC (DNA:RNA)
# RNA: B2 RNA with A25C, A26U, U27A, U28G, C30A, U31C
# DNA 1: CAATCTGAATTCCGGTCTCCC
# DNA 2: TGGTGGCTACGACGGGATT
# B5: UUGCAGU (DNA:RNA)
# RNA: B1 RNA with G25U, C26U, C27G, C29A, A31U
# DNA 1: CAATCTGAATTCCGGTCTCCC
# DNA 2: TGGTGGCTACGACGGGATT
# B6: UUUGCUA (DNA:RNA)
# RNA: B1 RNA with G25U, C26U, C27U, C28G, G30U
# DNA 1: CAATCTGAATTCCGGTCTCCC
# DNA 2: TGGTGGCTACGACGGGATT
# B7: UGGUUUC (DNA:RNA)
# RNA: B2 RNA with A25U, A26G, U27G, C30U, U31C
# DNA 1: CAATCTGAATTCCGGTCTCCC
# DNA 2: TGGTGGCTACGACGGGATT
# B8: CGACGAC (DNA:RNA)
# RNA: B1 RNA with G25C, C26G, C27A, C29G, G30A, A31C
# DNA 1: CAATCTGAATTCCGGTCTCCC
# DNA 2: TGGTGGCTACGACGGGATT
# B9: GGGGAUA (DNA:RNA)
# RNA: B1 RNA with C26G, C27G, C28G, C29A, G30U
# DNA 1: CAATCTGAATTCCGGTCTCCC
# DNA 2: TGGTGGCTACGACGGGATT
# B10: CAAUCCA (DNA:RNA)
# RNA: B2 RNA with A25C, U27A, U29C, U31A
# DNA 1: CAATCTGAATTCCGGTCTCCC
# DNA 2: TGGTGGCTACGACGGGATT
# B11: AACCGUU (DNA:RNA)
# RNA: B2 RNA with U27C, U28C, U29G, C30U
# DNA 1: CAATCTGAATTCCGGTCTCCC
# DNA 2: TGGTGGCTACGACGGGATT
# B12: GGAGCAA (DNA:RNA)
# RNA: B1 RNA with C26G, C27A, C28G, G30A
# DNA 1: CAATCTGAATTCCGGTCTCCC
# DNA 2: TGGTGGCTACGACGGGATT
# B13: UAGCCCA (DNA:RNA)
# RNA: B1 RNA with G25U, C26A, C27G, G30C
# DNA 1: CAATCTGAATTCCGGTCTCCC
# DNA 2: TGGTGGCTACGACGGGATT
# B14: AAAGUCC (DNA:RNA)
# RNA: B2 RNA with U27A, U28G, U31C
# DNA 1: CAATCTGAATTCCGGTCTCCC
# DNA 2: TGGTGGCTACGACGGGATT
# B15: UGCAAUC (DNA:RNA)
# RNA: B1 RNA with G25U, C26G, C28A, C29A, G30U, A31C
# DNA 1: CAATCTGAATTCCGGTCTCCC
# DNA 2: TGGTGGCTACGACGGGATT
# B16: ACAUUGA (DNA:RNA)
# RNA: B2 RNA with A26C, U27A, C30G, U31A
# DNA 1: CAATCTGAATTCCGGTCTCCC
# DNA 2: TGGTGGCTACGACGGGATT
# B17: GUACUAA (DNA:RNA)
# RNA: B1 RNA with C26U, C27A, C29U, G30A
# DNA 1: CAATCTGAATTCCGGTCTCCC
# DNA 2: TGGTGGCTACGACGGGATT
# B18: AGGGCAC (DNA:RNA)
# RNA: B2 RNA with A26G, U27G, U28G, U29C, C30A, U31C
# DNA 1: CAATCTGAATTCCGGTCTCCC
# DNA 2: TGGTGGCTACGACGGGATT
# B19: GAUGGAC (DNA:RNA)
# RNA: B2 RNA with A25G, U28G, U29G, C30A, U31C
# DNA 1: CAATCTGAATTCCGGTCTCCC
# DNA 2: TGGTGGCTACGACGGGATT
# B20: UGGACAA (DNA:RNA)
# RNA: B1 RNA with G25U, C26G, C27G, C28A, G30A
# DNA 1: CAATCTGAATTCCGGTCTCCC
# DNA 2: TGGTGGCTACGACGGGATT
# Biological target: T1, RBFOX1 RRM RbFoxmut (Fox-RRM*)
# Test: EMSA; HiTS-Eq, 1 nM pool, 10 min; buffer printed only for the single-RNA assays: 10 mM Tris pH 7.5, 150 mM NaCl, 3.4 mM EDTA, 0.001% NP-40, 30 C
# Conditions: tags: His6 N-terminal (pET28a); label: 5' 32P
# Summary of the method: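 These values rest on relative association constants, computed from read-count changes of each RNA species versus the control reaction and normalised to the cognate motif. Reads came from free RNA recovered by 8% native PAGE after purified RbFox RRM (wild type or mutant) at increasing concentrations was equilibrated for 10 min in 50 µL with 1 nM of a 5′-radiolabelled pool with 7 randomized nucleotides and DNA-annealed flanks.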
row,Binder,binding signal
1,B1,0.0465 KA relative to UGCAUGU
2,B2,0.078 KA relative to UGCAUGU
3,B3,0.0608 KA relative to UGCAUGU
4,B4,0.12 KA relative to UGCAUGU
5,B5,0.0903 KA relative to UGCAUGU
6,B6,0.131 KA relative to UGCAUGU
7,B7,0.183 KA relative to UGCAUGU
8,B8,0.061 KA relative to UGCAUGU
9,B9,0.124 KA relative to UGCAUGU
10,B10,0.0631 KA relative to UGCAUGU
11,B11,0.102 KA relative to UGCAUGU
12,B12,0.0829 KA relative to UGCAUGU
13,B13,0.0818 KA relative to UGCAUGU
14,B14,0.0663 KA relative to UGCAUGU
15,B15,0.102 KA relative to UGCAUGU
16,B16,0.118 KA relative to UGCAUGU
17,B17,0.102 KA relative to UGCAUGU
18,B18,0.0707 KA relative to UGCAUGU
19,B19,0.0517 KA relative to UGCAUGU
20,B20,0.0543 KA relative to UGCAUGU
